The list shows a part of the results.
test system: PfHDP1 homeodomain (GST-tagged); assay: gcPBM binding intensity (ln(normalized median fluorescence intensity)); higher = stronger DNA binding
Outline: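 GST-fused DNA-binding domains of P. falciparum, expressed in E. coli, were applied at about 25 μg on average for 1 h to an Agilent 4 × 180k array of primer-extended double-stranded 36-bp intergenic genomic probes and negative controls. Binding intensity is the highest Masliner-normalised natural-log median intensity across replicate spots of either probe orientation, measured with Alexa488 anti-GST antibody and a 488 nm scan.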

Going from “TTTTCTAAAATATTCATAATAAATCAAAAAAAAAAA [GTGCAC_negctrl_site320]” to “ATAAAAGGAATATTTGCATGTGGTAGTACATAACAT [TGCATGCA_site978]”, the “gcPBM binding intensity (ln)” value rises from 6.36 to 7.02.

Going from “TAATATTTTTATTATTAGAATTGTATATGTTTAATA [CACACA_negctrl_site1833]” to “TACATATATATATGTATATATATATATATATAAATA [XGTACX_negctrl_site351]”, the “gcPBM binding intensity (ln)” value rises from 5.88 to 6.85.

First: ACATAACTGATATATACACACAATACAAATATAGAT [CACACA_site7328]
Second: AAATGTGCATTATGTTGTACAGTCGAAATTTTTTTT [XGTACX_site3812]
The “gcPBM binding intensity (ln)” value of the first is lower: 6.85 for the first, 10.4 for the second.

Going from “ATGAATAAATGAACATGTACATATATATATATATTA [XGTACX_site5005]” to “TTAACAAAATATAGCACACATAAATATATATTTATG [CACACA_site351]”, the “gcPBM binding intensity (ln)” value rises from 6.64 to 6.83.

First: TAAAAAATTAATAAAGTGCATAAATATTACAATATT
Second: TTTTCTAAATATTATAGTACTCTTAATAATATTAAC [XGTACX_site4222]
The “gcPBM binding intensity (ln)” value of the first is higher: 7.68 for the first, 6.4 for the second.

First: GACATATTAGAAGGGTGTACATACTTTTAATCATTT [XGTACX_site1698]
Second: AATATTAAAATATAAACACACAAAATTCAATTATAT [CACACA_site5971]
The “gcPBM binding intensity (ln)” value of the first is higher: 6.45 for the first, 6.43 for the second.

Going from “ATTCATATATTTATTGCATGCAAAGTAAAATAAATA [TGCATGCA_site307]” to “ATTATATATAAATATACACACATATATAAAATACAT [CACACA_site5298]”, the “gcPBM binding intensity (ln)” value falls from 7.16 to 6.57.

Compared with “TACATACAGATATATACACACATATAAAATATAGAT [CACACA_site6319]”, AAGAGAAAAATATGGTTGCACTAAAAATATATATTT is higher in “gcPBM binding intensity (ln)” value: 6.64 for the first, 8.26 for the second.

Going from “AAATTAAAAAGAGCTTGTACAGATGTATACATAATA [XGTACX_site3882]” to “TATATGAAGCTATAGACACACATATAAAAATAGAAT [CACACA_site1313]”, the “gcPBM binding intensity (ln)” value falls from 6.86 to 6.78.

Compared with “AATTTATATGTTTTGTGTACACAATTTATTAAATTA [XGTACX_site6448]”, “TTTATAATTCTTACAACACACAATGTACATTTATAT [CACACA_site1261]” is lower in “gcPBM binding intensity (ln)” value: 7.22 for the first, 6.78 for the second.

Going from “TAATATTATTATTTTACACACTTTTTTCCTTTTATC [CACACA_site2457]” to “AAAGAATTTAAATATTGTACGCAATATATAAAAAAA [XGTACX_site7616]”, the “gcPBM binding intensity (ln)” value falls from 6.61 to 6.4.

Compared with “TTTGATAAAATTGATATCCTATAATTATATAAATAA [GTGCAC_negctrl_site317]”, “AAAAAACAGACATACACACACACACCCATATATATA [CACACA_site3392]” is higher in “gcPBM binding intensity (ln)” value: 6.01 for the first, 6.87 for the second.

“GATAAAATAAAAGTGGGTACTTAAATATATATATAA [XGTACX_site8457]” was tested, and the “gcPBM binding intensity (ln)” value was 6.43.
